Measurements taken from the supplement of paper PMC4604168 (melanoma cell lines).
This is one part of the list. Single values are uncertain, as repeats are few or missing.

Each molecule was assayed on COLO800 (assay: cell count relative to DMSO control; melanoma cells; higher = more viable cells). Conditions: library dose: low library concentration; 72 h.
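Note: cell number obtained by counting DAPI-stained nuclei in high-throughput microscope images with image analysis software, screen run in 1,536-well plates.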

| SMILES | cell count [%] |
| --- | --- |
| COc1ccc(C2=N[C@@H](c3ccc(Cl)cc3)[C@@H](c3ccc(Cl)cc3)N2C(=O)N2CCNC(=O)C2)c(OC(C)C)c1 [Nutlin-3] + C=C(c1ccc(C(=O)O)cc1)c1cc2c(cc1C)C(C)(C)CCC2(C)C [Bexarotene] (first compound 0.1 µM, partner dose 2 µM) | 89.7 |
| Cc1cc(Nc2cc(N3CCN(C)CC3)nc(/C=C/c3ccccc3)n2)n[nH]1 + Cc1nc(Nc2ncc(C(=O)Nc3c(C)cccc3Cl)s2)cc(N2CCN(CCO)CC2)n1 [dasatanib] (first compound 0.04 µM, partner dose 0.004 µM) | 86 |
| Cc1cn(-c2cc(NC(=O)c3ccc(C)c(Nc4nccc(-c5cccnc5)n4)c3)cc(C(F)(F)F)c2)cn1 [nilotinib] + CC(=O)O[C@@]12CO[C@@H]1C[C@H](O)[C@@]1(C)C(=O)[C@H](O)C3=C(C)[C@@H](OC(=O)[C@H](O)[C@@H](NC(=O)OC(C)(C)C)c4ccccc4)C[C@@](O)([C@@H](OC(=O)c4ccccc4)[C@H]21)C3(C)C [Docetaxel] (first compound 0.2 µM, partner dose 0.0001 µM) | 49.5 |
| Cn1c(=O)n(-c2ccc(C(C)(C)C#N)cc2)c2c3cc(-c4cnc5ccccc5c4)ccc3ncc21 + CO[C@H]1C[C@@H]2CC[C@@H](C)[C@@](O)(O2)C(=O)C(=O)N2CCCC[C@H]2C(=O)O[C@H]([C@H](C)C[C@@H]2CC[C@@H](OCCO)[C@H](OC)C2)CC(=O)[C@H](C)/C=C(\C)[C@@H](O)[C@@H](OC)C(=O)[C@H](C)C[C@H](C)/C=C/C=C/C=C/1C [everolimus] (first compound 0.004 µM, partner dose 0.02 µM) | 79.7 |
| COc1ccc(C2=N[C@@H](c3ccc(Cl)cc3)[C@@H](c3ccc(Cl)cc3)N2C(=O)N2CCNC(=O)C2)c(OC(C)C)c1 [Nutlin-3] + C[C@]1(c2nc3c(C(N)=O)cccc3[nH]2)CCCN1 [Veliparib] (first compound 0.1 µM, partner dose 1.4 µM) | 84.1 |
| COc1ccc(C2=N[C@@H](c3ccc(Cl)cc3)[C@@H](c3ccc(Cl)cc3)N2C(=O)N2CCNC(=O)C2)c(OC(C)C)c1 [Nutlin-3] + Nc1cccc2c1CN(C1CCC(=O)NC1=O)C2=O [lenalidomide] (first compound 0.1 µM, partner dose 1 µM) | 121 |
| CC(C)C[C@H](NC(=O)[C@H](Cc1ccccc1)NC(=O)c1cnccn1)B(O)O [Bortezomib] + O=C(O)[C@@H]1[O][Sb](=[O])([O][Sb]2(=[O])[O][C@H]([C@H](O)CO)[C@H](O)[C@H](C(=O)O)[O]2)[O][C@H]([C@H](O)CO)[C@@H]1O [stibogluconate] (first compound 0.001 µM, partner dose 2 µM) | 71.5 |
| COc1ccc(C2=N[C@@H](c3ccc(Cl)cc3)[C@@H](c3ccc(Cl)cc3)N2C(=O)N2CCNC(=O)C2)c(OC(C)C)c1 [Nutlin-3] + Nc1ccn([C@@H]2O[C@H](CO)[C@@H](O)C2(F)F)c(=O)n1 [gemcitabine] (first compound 0.1 µM, partner dose 0.0004 µM) | 93.8 |
| Cc1cc(Nc2cc(N3CCN(C)CC3)nc(/C=C/c3ccccc3)n2)n[nH]1 + CCCS(=O)(=O)Nc1ccc(F)c(C(=O)c2c[nH]c3ncc(Cl)cc23)c1F [PLX4720] (first compound 0.04 µM, partner dose 0.08 µM) | 91 |
| Cn1c(=O)n(-c2ccc(C(C)(C)C#N)cc2)c2c3cc(-c4cnc5ccccc5c4)ccc3ncc21 + COc1ccc(Cl)c(Nc2nc3ccccc3nc2NS(=O)(=O)c2cccc(NC(=O)C(C)(C)N)c2)c1 [XL147] (first compound 0.004 µM, partner dose 0.8 µM) | 95.9 |
| Cc1cn(-c2cc(NC(=O)c3ccc(C)c(Nc4nccc(-c5cccnc5)n4)c3)cc(C(F)(F)F)c2)cn1 [nilotinib] + NC(=O)c1ccc(N(C(N)=O)c2c(F)cccc2F)nc1-c1ccc(F)cc1F [VX702] (first compound 0.2 µM, partner dose 0.4 µM) | 86.7 |
| Cc1cn(-c2cc(NC(=O)c3ccc(C)c(Nc4nccc(-c5cccnc5)n4)c3)cc(C(F)(F)F)c2)cn1 [nilotinib] + O=C(O)c1ccc2c(c1)nc(Nc1cccc(Cl)c1)c1ccncc12 [CX4945] (first compound 0.2 µM, partner dose 0.4 µM) | 58.7 |
| Cc1cn(-c2cc(NC(=O)c3ccc(C)c(Nc4nccc(-c5cccnc5)n4)c3)cc(C(F)(F)F)c2)cn1 [nilotinib] + C[C@]1(O)C[C@@H](c2nc(-c3ccc4ccc(-c5ccccc5)nc4c3)c3c(N)nccn32)C1 [OSI906] (first compound 0.2 µM, partner dose 0.4 µM) | 60.7 |
| CC(C)C[C@H](NC(=O)[C@H](Cc1ccccc1)NC(=O)c1cnccn1)B(O)O [Bortezomib] + Nc1nc(F)nc2c1ncn2[C@@H]1O[C@H](CO)[C@@H](O)[C@@H]1O [fludarabine] (first compound 0.001 µM, partner dose 0.2 µM) | 133 |
| COc1ccc(C2=N[C@@H](c3ccc(Cl)cc3)[C@@H](c3ccc(Cl)cc3)N2C(=O)N2CCNC(=O)C2)c(OC(C)C)c1 [Nutlin-3] + CNC(=O)c1cc(Oc2ccc(NC(=O)Nc3ccc(Cl)c(C(F)(F)F)c3)cc2)ccn1 [sorafenib] (first compound 0.1 µM, partner dose 0.4 µM) | 91.5 |
| COc1ccc(C2=N[C@@H](c3ccc(Cl)cc3)[C@@H](c3ccc(Cl)cc3)N2C(=O)N2CCNC(=O)C2)c(OC(C)C)c1 [Nutlin-3] + COCC[n+]1c2c(n(Cc3cnccn3)c1C)C(=O)c1ccccc1C2=O [YM155] (first compound 0.1 µM, partner dose 0.0004 µM) | 74 |
| COc1ccc(C2=N[C@@H](c3ccc(Cl)cc3)[C@@H](c3ccc(Cl)cc3)N2C(=O)N2CCNC(=O)C2)c(OC(C)C)c1 [Nutlin-3] + Nc1nc(F)nc2c1ncn2[C@@H]1O[C@H](CO)[C@@H](O)[C@@H]1O [fludarabine] (first compound 0.1 µM, partner dose 0.2 µM) | 71 |
| COc1ccc(C2=N[C@@H](c3ccc(Cl)cc3)[C@@H](c3ccc(Cl)cc3)N2C(=O)N2CCNC(=O)C2)c(OC(C)C)c1 [Nutlin-3] + CC(C)C[C@H](NC(=O)[C@H](Cc1ccccc1)NC(=O)c1cnccn1)B(O)O [Bortezomib] (first compound 0.1 µM, partner dose 0.001 µM) | 75.2 |
| CC(C)C[C@H](NC(=O)[C@H](Cc1ccccc1)NC(=O)c1cnccn1)B(O)O [Bortezomib] + CNC(=O)c1cc(Oc2ccc(NC(=O)Nc3ccc(Cl)c(C(F)(F)F)c3)cc2)ccn1 [sorafenib] (first compound 0.001 µM, partner dose 0.4 µM) | 102 |
| Cc1cc(Nc2cc(N3CCN(C)CC3)nc(/C=C/c3ccccc3)n2)n[nH]1 + Nc1ccn([C@@H]2O[C@H](CO)[C@@H](O)C2(F)F)c(=O)n1 [gemcitabine] (first compound 0.04 µM, partner dose 0.0004 µM) | 74.2 |
| CC(C)C[C@H](NC(=O)[C@H](Cc1ccccc1)NC(=O)c1cnccn1)B(O)O [Bortezomib] + Cc1nc(Nc2ncc(C(=O)Nc3c(C)cccc3Cl)s2)cc(N2CCN(CCO)CC2)n1 [dasatanib] (first compound 0.001 µM, partner dose 0.004 µM) | 101 |
| COc1ccc(C2=N[C@@H](c3ccc(Cl)cc3)[C@@H](c3ccc(Cl)cc3)N2C(=O)N2CCNC(=O)C2)c(OC(C)C)c1 [Nutlin-3] + C[C@@H](Oc1cc(-c2cnn(C3CCNCC3)c2)cnc1N)c1c(Cl)ccc(F)c1Cl [Crizotinib] (first compound 0.1 µM, partner dose 0.2 µM) | 94.6 |
| COc1ccc(C2=N[C@@H](c3ccc(Cl)cc3)[C@@H](c3ccc(Cl)cc3)N2C(=O)N2CCNC(=O)C2)c(OC(C)C)c1 [Nutlin-3] + OCc1c[nH]c2ccccc12 [Indole-3-carbinol] (first compound 0.1 µM, partner dose 0.8 µM) | 68.9 |
| COc1ccc(C2=N[C@@H](c3ccc(Cl)cc3)[C@@H](c3ccc(Cl)cc3)N2C(=O)N2CCNC(=O)C2)c(OC(C)C)c1 [Nutlin-3] + CS(=O)(=O)CCNCc1ccc(-c2ccc3ncnc(Nc4ccc(OCc5cccc(F)c5)c(Cl)c4)c3c2)o1 [lapatinib] (first compound 0.1 µM, partner dose 0.8 µM) | 103 |
| Cc1cn(-c2cc(NC(=O)c3ccc(C)c(Nc4nccc(-c5cccnc5)n4)c3)cc(C(F)(F)F)c2)cn1 [nilotinib] + CC(=O)c1c(C)c2cnc(Nc3ccc(N4CCNCC4)cn3)nc2n(C2CCCC2)c1=O [palbociclib] (first compound 0.2 µM, partner dose 0.04 µM) | 84.5 |
| Cc1cn(-c2cc(NC(=O)c3ccc(C)c(Nc4nccc(-c5cccnc5)n4)c3)cc(C(F)(F)F)c2)cn1 [nilotinib] + CCN(CC)CCNC(=O)c1c(C)[nH]c(/C=C2\C(=O)Nc3ccc(F)cc32)c1C [sunitinib] (first compound 0.2 µM, partner dose 0.4 µM) | 94.3 |
